# Test results: PubChem BioAssay AID1476 (National Center for Advancing Translational Sciences (NCATS), 2009)
# Screen size: about 200,000 compounds; about 4,500 (2.2%) were called active. This list was built around the results that the source calls inconclusive (neither active nor inactive); the mix of calls is not that of the screen. The call rests on the fitted dose curve; in most records, active means well fitted inhibition curve with a large enough effect; inconclusive means small, poorly fitted or top-dose-only effect, or effect the other way; inactive means flat fitted curve, though single readings scatter. Potencies beside an inconclusive call are fits to weak or partial responses and may not hold up.
# Biological target: Cruzipain (Trypanosoma cruzi) (UniProt P25779)
# Assay: qHTS Assay for Promiscuous and Specific Inhibitors of Cruzain (without detergent); further: nearly all actives have a fitted effect of over 40% in size;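 on max response, negative = inhibition: plate controls were enzyme without inhibitor for no effect and buffer without enzyme for full effect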
# Conditions: purified cruzain, Z-FR-AMC fluorescence, no detergent
# Outline: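 Detergent-free condition (0.00005% Triton X-100) in acetate buffer pH 5.5 with DTT. 1.5 nM enzyme and compound were pre-mixed 15 min, then 2 uM Z-FR-AMC substrate added; reaction progress from fluorescence change between first and third reads (60 s).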
# Potency means the concentration at half of the fitted maximal effect; tags describe the fitted curve by direction and shape.
# Chain of UniProt P25779 (P25779 whole entry, looked up): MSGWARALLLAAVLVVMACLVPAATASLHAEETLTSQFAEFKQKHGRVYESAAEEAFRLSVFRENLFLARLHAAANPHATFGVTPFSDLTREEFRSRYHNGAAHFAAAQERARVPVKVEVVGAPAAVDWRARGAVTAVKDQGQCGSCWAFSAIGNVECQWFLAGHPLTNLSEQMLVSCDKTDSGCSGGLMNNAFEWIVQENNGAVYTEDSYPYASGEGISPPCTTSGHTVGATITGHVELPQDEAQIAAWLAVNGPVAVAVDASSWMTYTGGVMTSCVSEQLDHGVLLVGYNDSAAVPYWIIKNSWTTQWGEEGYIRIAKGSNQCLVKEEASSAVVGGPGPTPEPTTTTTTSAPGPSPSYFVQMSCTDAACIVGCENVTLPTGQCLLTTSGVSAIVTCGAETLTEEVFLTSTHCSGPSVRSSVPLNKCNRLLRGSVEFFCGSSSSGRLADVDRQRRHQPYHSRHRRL
SMILES,Potency,"max response, negative = inhibition"
CCOc1cc(-c2ccc(OC(=O)c3ccccc3)c(OC)c2)cc(=O)c2c(C)oc(C)c12,"inconclusive: 25.1 µM [activator, single point]",–
COc1ccc(CN(C2CCCC2)S(=O)(=O)c2ccc(-n3cnnn3)c(OC)c2)cc1OC,"inconclusive: 31.6 µM [activator, single point]",–
O=c1c2c(-c3ccc([N+](=O)[O-])cc3)csc2nc2n1CCC2,–,inactive: -7.87%
COc1cccc(Cc2nc3ccccc3nc2SCC(=O)Nc2cc(OC)ccc2OC)c1,"inconclusive: 25.1 µM [inhibitor, single point]",–
CCOc1ccc(NC(=O)CC2C(=O)N(c3ccccc3)C(=S)N2Cc2ccccn2)cc1 (stereo not given),"inconclusive: 31.6 µM [activator, single point]",–
Cc1ccc2occ(CC(=O)Nc3ccc(S(=O)(=O)N4CCC(C)CC4)cc3)c2c1,"inconclusive: 25.1 µM [inhibitor, single point]",–
CCOC(=O)c1cc(-c2ccc(Cl)s2)nc2c1c(C)nn2C,"inconclusive: 31.6 µM [activator, single point]",–
COC(=O)CCC(C)C1CCC2C3CC[C@H]4CC(O)CC[C@@]4(C)C3CC(O)[C@]12C (stereo not given in full),"inconclusive: 7.94 µM [activator, full curve]",–
COc1ccc(C(c2nnnn2CC2CCCO2)N2CCN(c3cccc(C)c3C)CC2)cc1 (stereo not given),"inconclusive: 31.6 µM [activator, single point]",–
Cc1nn(C)c(C)c1CN(C)C(=O)c1cc2n(n1)C(C(F)(F)F)CC(c1cccs1)N2 (stereo not given),"inconclusive: 31.6 µM [activator, single point]",–
O=C(c1cn(-c2ccccc2)nc1-c1ccc(Br)cc1)N1CCOCC1,"inconclusive: 39.8 µM [activator, single point]",–
CCOc1cc(NC(=S)Nc2ccccc2OC)c(OCC)cc1NC(=O)c1ccccc1C,"inconclusive: 25.1 µM [inhibitor, single point]",–
CCCCCn1cc2c(c1-c1ccccc1Br)c(=O)n(C)c(=O)n2C,–,inactive: 12%
Cc1ccc(-n2nc3ccc(NC(=S)NC(=O)/C=C/c4ccco4)cc3n2)cc1,"inconclusive: 3.16 µM [inhibitor, full curve, poor fit]",–
CCOC(=O)c1c(NC(=S)Nc2cc([N+](=O)[O-])ccc2OC)sc2c1CCCCC2,active: 12.6 µM,–
Cc1cc(NC(=O)CSc2nnc(Nc3ccccc3)s2)no1,active: 15.8 µM,–
Cn1c(=O)c2c(ncn2CC(=O)Nc2cc(Cl)c(Cl)cc2Cl)n(C)c1=O,"inconclusive: 15.8 µM [inhibitor, partial curve]",–
CCOc1cc(-c2noc(-c3ccncc3)n2)cc(Br)c1OC,"inconclusive: 39.8 µM [activator, single point]",–
COc1ccc(-c2cc(C3CC3)nc(SCC(=O)c3cccs3)c2C#N)cc1,"inconclusive: 31.6 µM [inhibitor, single point]",–
COc1ccc(OC)c(CCNC(=O)CS(=O)(=O)Cc2nc(-c3ccc(C)cc3)oc2C)c1,"inconclusive: 39.8 µM [activator, single point]",–
CC(=O)NC1=NN(C(C)=O)C(C)(c2ccc(Cl)s2)S1 (stereo not given),"inconclusive: 12.6 µM [inhibitor, partial curve]",–
CCOc1ccccc1NC(=O)C1CCCN1S(=O)(=O)c1ccc2nc(-c3ccccc3)[nH]c2c1 (stereo not given),"inconclusive: 25.1 µM [inhibitor, single point]",–

SMILES,Potency,"max response, negative = inhibition"
CCCCNc1nnc(SCC(=O)c2c[nH]c3ccccc23)s1,"inconclusive: 39.8 µM [inhibitor, single point]",–
O=C(NC1CCCCC1)c1ccc2c(c1)N(Cc1ccccc1Cl)C(=O)c1ccccc1S2,active: 10 µM,–
O=S1(=O)c2cccc3cccc(c23)N1Cc1nnc(-c2ccccc2Br)o1,"inconclusive: 39.8 µM [inhibitor, single point]",–
CN(C)c1ccc(CNC(=O)C2COc3ccccc3C2)cc1 (stereo not given),–,inactive: 1.46%
COc1ccc(C2CC(c3ccccc3)=NN2c2ccc(/C=N/NC(=O)c3ccncc3)cc2)cc1 (stereo not given),–,inactive: -21.5%
O=C(NCc1ccc(Cl)cc1)NC1COc2ccccc2C1 (stereo not given),–,inactive: -13.8%
Cc1c(C(=O)OCc2ccccc2)[nH]c2c1C(=O)CC(c1ccc(Cl)cc1)C2 (stereo not given),active: 7.94 µM,–
O=C(C(=O)N1CCc2ccccc2C1)N1CCc2ccccc2C1,–,inactive: -0.495%
CC(C)CNc1nc(N)[nH]c(=O)c1NC=O,–,inactive: 6.86%
Cc1onc(-c2ccccc2Cl)c1C(=O)Nc1sc2c(c1C(N)=O)CCC(C)C2 (stereo not given),"inconclusive: 20 µM [inhibitor, single point]",–
COc1ccc(CCn2c(-c3ccco3)nc3nc4ccccc4nc32)cc1OC,"inconclusive: 31.6 µM [activator, single point]",–
COCCOC(=O)c1c(C)n(C)c2ccc(OC(=O)C3CC3)cc12,"inconclusive: 25.1 µM [activator, single point]",–
O=C(Nc1ccc(N2CCCC2)cc1)c1ccc2ccccc2c1,active: 15.8 µM,–
Cc1nnc(SCc2nc3ccccc3s2)n1-c1ccccc1,active: 20 µM,–
CN(C)S(=O)(=O)N1CCN(S(=O)(=O)c2ccc3ccccc3c2)CC1,"inconclusive: 25.1 µM [inhibitor, single point]",–
CCOc1ccc(S(=O)(=O)Nc2ccc3oc4c(c3c2)CC(C)CC4)cc1 (stereo not given),"inconclusive: 39.8 µM [inhibitor, single point]",–
O=C(Nc1ccc2c(c1)OCO2)c1ccc(Br)c(S(=O)(=O)N2CCCC2)c1,"inconclusive: 25.1 µM [inhibitor, single point]",–
Cc1ccc(-c2noc(CSc3nnc(C)n3-c3ccc(C)c(C)c3)n2)cc1,"inconclusive: 25.1 µM [activator, single point]",–
COc1ccc(Cl)cc1NC(=O)CSc1ccc2nnc(CCNS(=O)(=O)c3ccccc3)n2n1,"inconclusive: 39.8 µM [activator, single point]",–
CCOc1ccc(-c2cc(C(=O)Nc3ccc4c(c3)OCCO4)c3ccccc3n2)cc1,"inconclusive: 31.6 µM [inhibitor, single point]",–
O=C1C(=O)N(Cc2ccc(Cl)c(Cl)c2)c2ccccc21,"inconclusive: 15.8 µM [activator, partial curve]",–
CCOc1ccc(N/C=C/C(=O)c2ccccc2)c([N+](=O)[O-])c1,"inconclusive: 1.26 µM [inhibitor, single point]",–

SMILES,Potency,"max response, negative = inhibition"
COCCn1c(SCc2nnc(-c3ccccc3)o2)nc2sc3c(c2c1=O)CCC3,"inconclusive: 39.8 µM [activator, single point]",–
CCn1c(=O)c(C(=O)Nc2ccsc2C(=O)OC)c(O)c2ccccc21,"inconclusive: 12.6 µM [activator, partial curve]",–
CCOC(=O)N1CCN(C(=O)c2ccc3nc4ccc(Cl)cc4c(=O)n3c2)CC1,"inconclusive: 31.6 µM [activator, single point]",–
COc1cccc2c1cc1c(=O)n(CC(=O)NCc3ccco3)nc(C)n12,–,inactive: -2.12%
Cc1ccc(-n2c(SCC(=O)NCc3ccco3)nc3nc4c(cc3c2=O)COC(C)(C)C4)cc1,"inconclusive: 31.6 µM [activator, single point]",–
Cc1ccc2oc(C(=O)N(Cc3sccc3C)C3CCS(=O)(=O)C3)c(C)c2c1 (stereo not given),–,inactive: 8.22%
COc1ccccc1N1CCN(C(=O)CSc2ncnc3scc(-c4ccccc4)c23)CC1,–,inactive: 6.46%
COc1ccccc1CNC(=O)C(=O)NCC(c1cccs1)S(=O)(=O)c1cccs1 (stereo not given),"inconclusive: 15.8 µM [activator, single point]",–
CCOc1[nH]n(-c2ccc(Cl)cc2)c(=O)c1C=Nc1ccc(Cl)cc1,"inconclusive: 39.8 µM [inhibitor, single point]",–
O=C(COC(=O)CNC(=O)C1CCCCC1)Nc1ccc(Cl)cn1,active: 6.31 µM,–
CC1=Nc2ccccc2/C1=C\c1sc(Nc2ccc(C)cc2)nc1O,"inconclusive: 39.8 µM [inhibitor, single point]",–
COc1ccc(-c2noc(N3CCC(C(=O)N4CCN(c5ccccn5)CC4)CC3)n2)cc1,"inconclusive: 25.1 µM [activator, single point]",–
CCC(C)NC(=O)CSc1ccc(Cl)cc1 (stereo not given),–,inactive: -10.1%
O=C(COc1ccc(Cl)cc1Cl)Nc1ccc2nc3n(c(=O)c2c1)CCCC3,"inconclusive: 31.6 µM [activator, single point]",–
COc1cc(NC(=O)Cn2nnc(-c3ccc(C(F)(F)F)cc3)n2)c(C(=O)O)cc1OC,"inconclusive: 3.16 µM [inhibitor, single point]",–
CCCOC(=O)c1c(NC(=O)C2c3ccccc3Oc3ccccc32)sc2c1CCCC2,active: 25.1 µM,–
COc1ccc(NC(=O)CCCSc2nc(-c3ccco3)cc(C(F)(F)F)n2)c(OC)c1,"inconclusive: 39.8 µM [activator, single point]",–
COc1cccc(CNC(=O)Cc2csc3ccccc23)c1OC,–,inactive: 5.57%
Cn1cnnc1Sc1ccc(C(=O)OCC(=O)Nc2cc(Cl)cc(Cl)c2)cc1[N+](=O)[O-],"inconclusive: 31.6 µM [inhibitor, single point]",–
COc1cccc(-c2ccc3c(N)c(C(=O)c4ccc(Br)cc4)sc3n2)c1,active: 7.94 µM,–
CCOC(=O)C1=C(C)N=c2s/c(=C\c3ccc(OC(C)=O)cc3)c(=O)n2C1/C=C/c1ccccc1 (stereo not given),"inconclusive: 6.31 µM [inhibitor, partial curve]",–
